Measurements published in patent publication US20240027454.

Tests used:
[1] = target: T1, 4-([4-(H-Ala-Ala-Pro-Val-Ala)amido N-piperazino]phenyl)-bis-(4-dimethyl-aminophenyl)-carbenium ion polyacrylamide (not fully specified)
T1 chain: AAPVX

[2] = target: T2, AAAPV-RBB linked through Jeffamine EDR 176 to polyacrylate quenched with N,N-dioctyl amine (not fully specified)
T2 chain: AAAPX

[3] = target: T3, AAAPVV-RBB linked through Jeffamine EDR 176 to polyacrylate quenched with N,N-dioctyl amine (not fully specified)
T3 chain: AAAPVX

[4] = target: AAPVA-RBB Bound to Paper Membrane
[5] = target: T4, AAPVA-RBB linked through ethylenediamine-glycyl spacer to polyacrylate (not fully specified)
T4 chain: AAPVX

[6] = target: T5, AAPVA-RBB linked to poly-(N-acroyl-Boc-Lys-OH)-co-(acroyl-Cys(Trt)-OH)
T5 chain: AAPVX

[7] = target: T6, AAPVA-RBB linked to polymer, product of Step A of Example 62 after trifluoroacetic acid treatment (not fully specified)
T6 chain: AAPVX

Fmoc-AAA-indoxyl ester = target: T7, Fmoc-AAA-indoxyl ester
T7 chain: AAA

[8] = target: Fmoc-AAPF-aminoethyl-(Remazol Black B)-(N-acetyl)-ethylamide
[9] = target: Fmoc-AAPV-4-methoxy-1-naphthol ester
[10] = target: Fmoc-AAPV-4-naphthol ester
[11] = target: Fmoc-AAPV-{2-hydroxy-3-[1-(5-(N-RBB-methyl)1,2,3-triazolyl)}propylamide
[12] = target: T8, Fmoc-AAPVAV-{2-hydroxy-3-[1-(5N-RBB-methyl)1,2,3-triazolyl)}propylamide
T8 chain: XAPVAX

Fmoc-APV-Indoxyl ester = target: T9, Fmoc-APV-Indoxyl ester
T9 chain: APV

[13] = target: T10, Fmoc-F-V-T(Bzl)-F- indoxyl ester (not fully specified)
T10 chain: FVTF

H-AAAPM-RBB = target: T11, H-AAAPM-RBB
T11 chain: AAAPX

H-AAPFA-RBB = target: T12, H-AAPFA-RBB
T12 chain: AAPFX

[14] = target: H-AAPV-{2-hydroxy-3-[1-(5-(N-RBB-methyl)1,2,3-triazolyl)}propylamide)
H-AAPVA-RBB = target: T13, H-AAPVA-RBB
T13 chain: AAPVX

H-AAPVAA-RBB = target: T14, H-AAPVAA-RBB
T14 chain: AAPVAX

[15] = target: T15, H-AAPVAV-{2-hydroxy-3-[1-(5-(N-RBB-methyl)1,2,3-triazolyl)}propylamide
T15 chain: AAPVAX

[16] = target: HEC-EDA-N-propionyl-AAPF-RBB
[17] = target: HEC-PEG200-N-propionyl-AAPF-RBB

B1: pancreatic porcine elastase (protein)
chain: VVGGTEAQRNSWPSQISLQYRSGSSWAHTCGGTLIRQNWVMTAAHCVDRELTFRVVVGEHNLNQNDGTEQYVGVQKIVVHPYWNTDDVAAGYDIALLRLAQSVTLNSYVQLGVLPRAGTILANNSPCYITGWGLTRTNGQLAQTLQQAYLPTVDYAICSSSSYWGSTVKNSMVCAGGDGVRSGCQGDSGGPLHCLVNGQYAVHGVTSFVSRLGCNVTRKPTVFTRVSAYISWINNVIASN
release of A-CV, mass peak [1]: Treatment with porcine and human elastase releases A-CV, as proven by the appearance of a mass peak at m/z=484
Porcine Elatase Cleavage [2]: +++
Porcine Elatase Cleavage [3]: +++
Porcine Elatase Cleavage [4]: 0
Porcine Elatase Cleavage [5]: ++
Porcine Elatase Cleavage [6]: +
Porcine Elatase Cleavage [7]: +
Porcine Elatase Cleavage (CMC 9M31F-AAPF-RBB): ++
Porcine Elatase Cleavage (CMC 9M31F-AAPFA-RBB): ++
Porcine Elatase Cleavage (Fmoc-AAA-indoxyl ester): ++
Porcine Elatase Cleavage (Fmoc-AAAA-Indoxyl ester): 0
Porcine Elatase Cleavage (Fmoc-AAAPM-RBB): 0
Porcine Elatase Cleavage (Fmoc-AAPA-Indoxyl ester): +++
Porcine Elatase Cleavage (Fmoc-AAPF-Indoxyl ester): +
Porcine Elatase Cleavage (Fmoc-AAPF-RBB): ++
Porcine Elatase Cleavage [8]: +
Porcine Elatase Cleavage (Fmoc-AAPFA-RBB): +
Porcine Elatase Cleavage (Fmoc-AAPV-(2-Napthol)): ++
Porcine Elatase Cleavage [9]: +
Porcine Elatase Cleavage [10]: +
Porcine Elatase Cleavage [11]: 0
Porcine Elatase Cleavage (Fmoc-AAPVA-RBB): +++
Porcine Elatase Cleavage [12]: 0
Porcine Elatase Cleavage (Fmoc-APV-Indoxyl ester): +
Porcine Elatase Cleavage [13]: 0
Porcine Elatase Cleavage (H-AAAPM-RBB): 0
Porcine Elatase Cleavage (H-AAPF-RBB): ++
Porcine Elatase Cleavage (H-AAPFA-RBB): +++
Porcine Elatase Cleavage [14]: 0
Porcine Elatase Cleavage (H-AAPVA-RBB): +++
Porcine Elatase Cleavage (H-AAPVAA-RBB): ++
Porcine Elatase Cleavage [15]: 0
Porcine Elatase Cleavage [16]: +++
Porcine Elatase Cleavage [17]: ++
